Measurements from the supplement of paper PMC12423691.
The list shows a part of the results. Binding of human transcription factors and regulators to the viral nucleoprotein by AlphaScreen, crude cell-free proteins, amounts not normalised, one pass. Fold of the Venus control; higher = more signal. No active / inactive call. Single-pass screen; sequences are the whole Swiss-Prot entries looked up by name.

B1: L3MBTL4, Q8NA19 (protein)
chain: MKQPNRKRKLNMDSKERLDQDGRLEQAEEEKKPKDSTTPLSHVPSAAAQGAWSWEWYLKEQKAVAAPVELFSKDQSFPEHENGFQIGMRLEGIDPRHPSVFCVLSVAEVCGYRLRLHFDGYLSCYDFWTNAGSPDIHPVGWCEKTKHELHIPKGYRKDKFVWMDYLKACKLQNAPKKLFRNRSPNGPMSKEFQVGMKLEAVDRKNPSLVCVATIADIVEDRLLVHFDNWDDSYDYWCDVNSPYVQPVGWCQENGRTLIAPQGYPNPENFSWTEYLEATQTNAVPAKVFKMRLPHGFLPNMKLEVVDKRNPRLIRVATIVDVDDQRVKVHFDGWDHKYDYWVEADSPDIHPIGWCDVTGHPLEVPQRTNDLKILPGQAVCPTPGCRGIGHIRGPRYSGHHSAFGCPYSDMNLKKEATLHDRLREQTQANLESDSSHSKSKSLCSLNFNGKHEKVNSQPRLVQQAKCLKIKGKEDIDLDNLFRVLVLHPRGLEYSVEQAQQVLHQSVSMSTVSAHPFRDLPLGREQHCKLLPGVADIRASQVARWTVDEVAEFVQSLLGCEEHAKCFKKEQIDGKAFLLLTQTDIVKVMKIKLGPALKIYNSILMFRHSQELPEEDIASGQEVRG
B2: ZSCAN4, Q8NAM6 (protein)
chain: MALDLRTIFQCEPSENNLGSENSAFQQSQGPAVQREEGISEFSRMVLNSFQDSNNSYARQELQRLYRIFHSWLQPEKHSKDEIISLLVLEQFMIGGHCNDKASVKEKWKSSGKNLERFIEDLTDDSINPPALVHVHMQGQEALFSEDMPLRDVIVHLTKQVNAQTTREANMGTPSQTSQDTSLETGQGYEDEQDGWNSSSKTTRVNENITNQGNQIVSLIIIQEENGPRPEEGGVSSDNPYNSKRAELVTARSQEGSINGITFQGVPMVMGAGCISQPEQSSPESALTHQSNEGNSTCEVHQKGSHGVQKSYKCEECPKVFKYLCHLLAHQRRHRNERPFVCPECQKGFFQISDLRVHQIIHTGKKPFTCSMCKKSFSHKTNLRSHERIHTGEKPYTCPFCKTSYRQSSTYHRHMRTHEKITLPSVPSTPEAS
B3: BTBD8, Q5XKL5 (protein)
chain: MARCGEGSAAPMVLLGSAGVCSKGLQRKGPCERRRLKATVSEQLSQDLLRLLREEFHTDVTFSVGCTLFKAHKAVLLARVPDFYFHTIGQTSNSLTNQEPIAVENVEALEFRTFLQIIYSSNRNIKNYEEEILRKKIMEIGISQKQLDISFPKCENSSDCSLQKHEIPEDISDRDDDFISNDNYDLEPASELGEDLLKLYVKPCCPDIDIFVDGKRFKAHRAILSARSSYFAAMLSGCWAESSQEYVTLQGISHVELNVMMHFIYGGTLDIPDKTNVGQILNMADMYGLEGLKEVAIYILRRDYCNFFQKPVPRTLTSILECLIIAHSVGVESLFADCMKWIVKHFARFWSERSFANIPPEIQKSCLNMLIQSLNDKNAAFLLMESDRLIISLPRVKWTEAALTMASQLQEKCIAFIVDNFSKIIQSENFALLLQSQAMSSTADLLDTILKAIEENITTENSCSLLMALDTLLNSDSTKEMGFTCKIQALRDKLWIFLVQSFYAVRHTESWKLMSTDDQQKIQAAAFDKGDDRRLGKKPIFSSSQQRKQVSDSGDIKIKSWRGNNKKECWSYLSTNKKMKSDGLGASGHSSSTNRNSINKTLKQDDVKEKDGTKIASKITKELKTGGKNVSGKPKTVTKSKTENGDKARLENMSPRQVVERSATAAAAATGQKNLLNGKGVRNQEGQISGARPKVLTGNLNVQAKAKPLKKATGKDSPCLSIAGPSSRSTDSSMEFSISTECLDEPKENGSTEEEKPSGHKLSFCDSPGQMMKNSVDSVKNSTVAIKSRPVSRVTNGTSNKKSIHEQDTNVNNSVLKKVSGKGCSEPVPQAILKKRGTSNGCTAAQQRTKSTPSNLTKTQGSQGESPNSVKSSVSSRQSDENVAKLDHNTTTEKQAPKRKMVKQVHTALPKVNAKIVAMPKNLNQSKKGETLNNKDSKQKMPPGQVISKTQPSSQRPLKHETSTVQKSMFHDVRDNNNKDSVSEQKPHKPLINLASEISDAEALQSSCRPDPQKPLNDQEKEKLALECQNISKLDKSLKHELESKQICLDKSETKFPNHKETDDCDAANICCHSVGSDNVNSKFYSTTALKYMVSNPNENSLNSNPVCDLDSTSAGQIHLISDRENQVGRKDTNKQSSIKCVEDVSLCNPERTNGTLNSAQEDKKSKVPVEGLTIPSKLSDESAMDEDKHATADSDVSSKCFSGQLSEKNSPKNMETSESPESHETPETPFVGHWNLSTGVLHQRESPESDTGSATTSSDDIKPRSEDYDAGGSQDDDGSNDRGISKCGTMLCHDFLGRSSSDTSTPEELKIYDSNLRIEVKMKKQSNNDLFQVNSTSDDEIPRKRPEIWSRSAIVHSRERENIPRGSVQFAQEIDQVSSSADETEDERSEAENVAENFSISNPAPQQFQGIINLAFEDATENECREFSATKKFKRSVLLSVDECEELGSDEGEVHTPFQASVDSFSPSDVFDGISHEHHGRTCYSRFSRESEDNILECKQNKGNSVCKNESTVLDLSSIDSSRKNKQSVSATEKKNTIDVLSSRSRQLLREDKKVNNGSNVENDIQQRSKFLDSDVKSQERPCHLDLHQREPNSDIPKNSSTKSLDSFRSQVLPQEGPVKESHSTTTEKANIALSAGDIDDCDTLAQTRMYDHRPSKTLSPIYEMDVIEAFEQKVESETHVTDMDFEDDQHFAKQDWTLLKQLLSEQDSNLDVTNSVPEDLSLAQYLINQTLLLARDSSKPQGITHIDTLNRWSELTSPLDSSASITMASFSSEDCSPQGEWTILELETQH
B4: RFX3, P48380 (protein)
chain: MQTSETGSDTGSTVTLQTSVASQAAVPTQVVQQVPVQQQVQQVQTVQQVQHVYPAQVQYVEGSDTVYTNGAIRTTTYPYTETQMYSQNTGGNYFDTQGSSAQVTTVVSSHSMVGTGGIQMGVTGGQLISSSGGTYLIGNSMENSGHSVTHTTRASPATIEMAIETLQKSDGLSTHRSSLLNSHLQWLLDNYETAEGVSLPRSTLYNHYLRHCQEHKLDPVNAASFGKLIRSIFMGLRTRRLGTRGNSKYHYYGIRVKPDSPLNRLQEDMQYMAMRQQPMQQKQRYKPMQKVDGVADGFTGSGQQTGTSVEQTVIAQSQHHQQFLDASRALPEFGEVEISSLPDGTTFEDIKSLQSLYREHCEAILDVVVNLQFSLIEKLWQTFWRYSPSTPTDGTTITESSNLSEIESRLPKAKLITLCKHESILKWMCNCDHGMYQALVEILIPDVLRPIPSALTQAIRNFAKSLEGWLSNAMNNIPQRMIQTKVAAVSAFAQTLRRYTSLNHLAQAARAVLQNTSQINQMLSDLNRVDFANVQEQASWVCQCDDNMVQRLETDFKMTLQQQSTLEQWAAWLDNVMMQALKPYEGRPSFPKAARQFLLKWSFYSSMVIRDLTLRSAASFGSFHLIRLLYDEYMFYLVEHRVAQATGETPIAVMGEFGDLNAVSPGNLDKDEGSEVESEMDEELDDSSEPQAKREKTELSQAFPVGCMQPVLETGVQPSLLNPIHSEHIVTSTQTIRQCSATGNTYTAV

What follows are binders tested against nucleoprotein N of Crimean-Congo hemorrhagic fever virus (assay: AlphaScreen luminescence signal relative to Venus negative control (fold); higher = stronger binding to CCHFV N).
Experimental: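 AlphaScreen binding of cell-free made, FLAG-GST-tagged human transcription factors and regulators (crude translation products) to biotinylated N protein; signal as fold of the FLAG-GST-Venus control. One pass.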

Binder | AlphaScreen luminescence signal
B1 | 3.21
B2 | 1.86
B3 | 2.7
B4 | 1.81
